# Assay results from PMC10668032.
# The other results are listed elsewhere or left out. At the low end of the ranking the order means little.
# Molecular target: SIX1-Q177R homeodomain (UniProt Q15475)
# Experiment: universal protein binding microarray
# Details: Universal all-10-mer PBM (8x60K, AMADID 030236), 300 nM GST-tagged protein, Alexa Fluor 488 anti-GST; buffer, salt, pH and temperature not stated; high values mean tight binding; most listed sequences are background and not binding sites; double strand, one strand shown
row,Sequence,binding signal [E-score]
1,CGTACCTA,0.118
2,CCGTACCA,0.0535
3,CATTGCGG,0.133
4,ATGGTTCA,-0.0461
5,ATACGTGA,0.0455
6,AGTATGCC,-0.0511
7,CGTCGTTC,-0.136
8,ACAAACAG,-0.0933
9,CCTAAAGA,0.046
10,AATACGAG,0.0529
11,TCAGGGGA,0.165
12,GCCTACAA,-0.0277
13,GCGATAAC,0.0213
14,ACGTCTAG,-0.0895
15,CCTGCGCC,-0.112
16,GGAATTCC,-0.153
17,GTAGCTTA,0.0179
18,GGGCCTGA,-0.0408
19,CTTCGTCA,-0.0898
20,CGCTATGA,0.00818
21,GCCATTAA,-0.0682
22,CCTTGCAA,-0.221

row,Sequence,binding signal [E-score]
1,GCGTCGTA,-0.0703
2,ACTCGCGG,0.053
3,AGGAGCGA,-0.165
4,GCATGGCA,-0.246
5,TCGGGGCA,0.0738
6,CGAATGCC,-0.164
7,ACATACGC,-0.019
8,TAATCCAA,-0.00703
9,GCACCACC,0.261
10,ACGTTTTA,-0.137
11,CCCCACGC,0.124
12,ACACGGTA,0.385
13,TTAACTAA,-0.0764
14,GTTACAAA,0.0926
15,GTTGTTAA,-0.14
16,GAACCAGC,-0.0582
17,AAGGATGC,-0.221
18,GTATATCA,0.0538
19,AATGTGAG,-0.0691
20,TCAGACCA,-0.0454
21,CTATGTCA,-0.132
22,TAGGGGGA,0.00812

row,Sequence,binding signal [E-score]
1,CCTCCGTA,-0.0859
2,AAAAAGAC,-0.21
3,AGGAGCTA,-0.222
4,AGACATTA,-0.0844
5,ACTTATTA,0.0898
6,CGATCACG,0.173
7,ATACCCTG,0.31
8,CTCTAGCA,-0.085
9,ATAGAGAC,-0.308
10,GACAGCTC,-0.258
11,AACCAGAA,0.0225
12,TATGTCCA,-0.103
13,GTGCCCTA,0.000565
14,CCATACCG,-0.0866
15,ACGGCCGA,-0.12
16,CCATGAAA,-0.117
17,AGGTAACA,0.138
18,ATGGACGC,-0.138
19,GATTTAAA,-0.241
20,CAAATGTG,0.0608
21,ATCACCAA,-0.0707
22,CGGACACC,0.48

row,Sequence,binding signal [E-score]
1,GTACCCTA,0.124
2,GACTCTAA,-0.0982
3,AGCCACCT,-0.238
4,CCACCCCC,0.209
5,GGGGACAA,-0.0265
6,GGTTCAAA,0.00768
7,CATTCAGG,-0.231
8,TAAAATCA,-0.186
9,CCCCGCGC,0.111
10,AAATACCA,-0.224
11,GCATCTAA,-0.148
12,CAAAGAGG,0.0396
13,AAAGCAGC,-0.242
14,ATCGTATC,-0.0294
15,CAGTAGTA,-0.132
16,CCTCATCA,0.115
17,AGCACCTG,0.0803
18,GTTATCCA,0.0621
19,AAGTAGAG,0.0576
20,ACGAGAAC,-0.1
